# Measurements reported in PMC10668032.
# The other results are listed elsewhere or left out. At the low end of the ranking the order means little.
# Molecular target: SIX1-Q177R homeodomain (UniProt Q15475)
# Experiment: universal protein binding microarray
# Conditions: Universal all-10-mer PBM (8x60K, AMADID 030236), 300 nM GST-tagged protein, Alexa Fluor 488 anti-GST; buffer, salt, pH and temperature not stated; high values mean tight binding; most listed sequences are background and not binding sites; double strand, one strand shown
row,Sequence,binding signal [E-score]
1,CCCCCCCG,0.218
2,AGAATTTG,-0.109
3,CCGGTGAC,0.0956
4,CATTCCGA,-0.0785
5,GGTTAAGA,0.0477
6,GAGTTCCA,-0.0662
7,GTTGGGAA,-0.191
8,ACTTCGAG,-0.21
9,GGCGCTGA,-0.141
10,GAGGACAA,-0.00825
11,GCAATTAA,-0.0798
12,GGTCTCAC,0.0109
13,GCAGGCCA,-0.182
14,GGTGGTAC,-0.00286
15,GATACTCC,0.223
16,GGGTGCAC,0.28
17,CCCCGCGA,0.16
18,CATGGTAA,-0.0286
19,CCTCAAAA,-0.167
20,AGGGGTAA,0.224
21,ACGCGTAC,0.0975
22,ACGTACAA,-0.195
23,CGCTGAAA,-0.115
24,ATTGAAAG,-0.118
25,CTTATCCC,-0.00404

row,Sequence,binding signal [E-score]
1,ATTCAAAC,-0.18
2,AAATCATA,-0.13
3,ATGAATCA,-0.19
4,ACTGAGTC,-0.0101
5,GAGCATCA,-0.28
6,GTCGCCGA,0.0743
7,CGCATGTA,-0.0958
8,TGCGGCCA,-0.221
9,ATAAGGGC,-0.0279
10,ACTATATA,0.0613
11,CAGATGTA,-0.176
12,ACATTTAG,0.00825
13,AGGATGTG,-0.0948
14,AGGGTTCC,0.0789
15,AACTTAGT,-0.194
16,AGAGTCAT,0.187
17,AAATCAAC,-0.139
18,CCCATGTC,-0.0132
19,AGGGGCCG,-0.141
20,GATGCGGC,-0.182
21,GCCCGCCC,0.053
22,ACTCTTCC,-0.0971
23,CTAGCGTC,-0.0683
24,GGGCAAGA,-0.0872
25,ACTTATGC,-0.0872

row,Sequence,binding signal [E-score]
1,TTAGTAAA,0.0011
2,AAACCCGT,0.0451
3,GCGTAAAC,0.0476
4,ATGCAGCC,-0.377
5,CCATCGAC,-0.255
6,CGCGATCA,0.0476
7,AGTTCCGA,-0.118
8,CTCATGTC,-0.104
9,TGATAAAA,-0.219
10,GCCGTGAA,-0.276
11,CAATAATA,0.0135
12,ATCATTTA,-0.141
13,ATAAGTAA,-0.0646
14,AAAATATG,-0.168
15,ACTGTAGC,-0.0891
16,AAGAGGCA,-0.121
17,TGGAAAAA,0.1
18,AGAGGTTC,-0.0738
19,ATCTGAGA,-0.217
20,ACAACCGA,-0.0845
21,AAGTAAAA,-0.284
22,AGAAGAGC,-0.213
23,CCGTCGAA,-0.227
24,ACTCCGAA,0.137
25,CCACGTCA,0.0507

row,Sequence,binding signal [E-score]
1,CTATTACC,0.0412
2,ATAACGTC,-0.011
3,AGGGCACG,0.034
4,GTGGGCGA,-0.258
5,CTGACGAA,-0.25
6,CGACGAGA,-0.227
7,CATTTCTC,-0.318
8,AAGTTACG,-0.0499
9,CCCTCGCG,0.0949
10,AACGAGGG,0.0692
11,CCCGTGAG,-0.0425
12,ATGCTGTA,-0.399
13,ACGAACAG,-0.00445
14,AATGCCTC,0.0127
15,ATAACGCC,0.078
16,CAACGGAA,-0.119
17,CGAGAACG,-0.137
18,CGTCGCGC,-0.173
19,AATTAAGA,-0.136
20,CCCTTAGG,0.175
21,CGTAGCCA,-0.137
22,CTTTTGCC,-0.0536
23,GTCCTATA,0.0431
24,ACGGACCG,0.00022
25,TACGTATA,-0.123

row,Sequence,binding signal [E-score]
1,ACCACCGA,0.0875
2,ACTAAGTC,-0.147
3,CGGAGCCC,-0.0206
4,ATAACAAA,-0.115
5,ATGACCAC,-0.17
6,GCTTTTGA,0.00578
7,CCTGCCTC,-0.156
8,AGCCTGAC,-0.0305
9,CCTATGCC,-0.162
10,AGCACTTG,-0.0171
11,CCGTAGTC,-0.182
12,CCCTTCTC,0.0869
13,AGTACGGA,-0.14
14,AAAACGCT,-0.203
15,AGGGGGTC,0.271
16,ACTCGAGA,0.116
17,CGCTCCTA,-0.0887
18,CTCGCAAG,-0.0141
19,CCTACGTC,-0.147
20,ACCCTGGA,0.168
21,CCACGATC,-0.143
22,ACGCGTGG,-0.000765
23,GGATTTTA,-0.0379
24,ACTGGGTA,0.0624
25,AACCAGGT,0.0195

row,Sequence,binding signal [E-score]
1,CCTCCTGA,0.0991
2,ATCTCTGG,-0.0843
3,ATGGAGGG,0.0862
4,TAAACTGA,-0.00412
5,CACCAACA,0.377
6,AGGGGTAG,0.269
7,AGACACCT,0.453
8,ATGCTGTG,-0.0586
9,GGTATTAC,0.122
10,AAGGTTGG,0.0234
11,AGGGGAGC,-0.0844
12,TCAGAAAA,-0.158
13,ACGTGTTG,0.346
14,CCCAGTAG,-0.0238
15,AGTACAAG,0.205
16,AGGAGGCC,-0.26
17,TAAAAACA,-0.0938
18,ATGGTCAG,-0.0442
19,GAATCTAA,-0.178
20,CCCGCCAC,0.195
21,TAACTTGA,0.0784
22,TATACGGA,-0.0563
23,CTCACAAA,-0.259
24,ATATCAGA,0.0134
25,CGATGACC,-0.0473

row,Sequence,binding signal [E-score]
1,CATCTCTC,-0.0406
2,CGCATTAA,-0.0417
3,AGCCCCCA,-0.085
4,GTCCCACA,0.107
5,ACCGCCGA,0.125
6,CGCACCAG,0.17
7,AACTTCTA,-0.257
8,ATTGGCGG,-0.12
9,CATTGTGG,0.029
10,GGGTGGTA,0.194
11,CTAGCTAA,-0.255
12,AGTGAAAG,-0.0682
13,GGATTCTA,0.0874
14,ATAAGTCG,-0.16
15,ACAACGAG,-0.0313
16,GGTACCAC,-0.115
17,TAAGGCCA,-0.116
18,AGGTCGGA,0.0808
19,TCAGTGGA,-0.112
20,CCTGTAAA,-0.00159
21,GCCCACGA,-0.25
22,AGCTAACG,-0.0718
